# In PubChem BioAssay AID624417 (National Center for Advancing Translational Sciences (NCATS), 2012):
# Hit rate of the full screen: of about 410,000 compounds, about 6,400 (1.6%) were called active. Inconclusive results, whose numbers are uncertain, are shown with a selection of clear calls. Calls follow the shape of the dose curve; as a rule, active = well fitted inhibition curve with a large enough effect; inconclusive = small, poorly fitted or top-dose-only effect; inactive = no such curve, though single readings can be large or run the other way. No potency is given beside an inconclusive call; the fits are too rough.
# Target: Glucagon-like peptide 1 receptor (Homo sapiens) (UniProt P43220)
# Assay: qHTS of GLP-1 Receptor Inverse Agonists (Inhibition Mode); also: nearly all actives have a fitted effect of over 55% in size
# Conditions: HEK293 GLP-1R CRE-luciferase, luminescence, 24 h, GLP-1R form is constitutively active; activity change, negative = inhibition: at 38.3 µM (top of the series) unless noted
# Outline: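 Constitutively active GLP-1R drives a cAMP-responsive luciferase in stably transfected HEK293 cells; test compounds are added after overnight (12 h) attachment and left 24 hr, and signal loss in luminescence marks inhibition.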
# % is scaled to controls: 0 for no effect and ±100 for the full control effect; potency is read from the fitted curve at half-maximal effect; tags tell the direction and shape of the fitted curve.
# UniProt P43220, sequence (P43220 whole entry, looked up): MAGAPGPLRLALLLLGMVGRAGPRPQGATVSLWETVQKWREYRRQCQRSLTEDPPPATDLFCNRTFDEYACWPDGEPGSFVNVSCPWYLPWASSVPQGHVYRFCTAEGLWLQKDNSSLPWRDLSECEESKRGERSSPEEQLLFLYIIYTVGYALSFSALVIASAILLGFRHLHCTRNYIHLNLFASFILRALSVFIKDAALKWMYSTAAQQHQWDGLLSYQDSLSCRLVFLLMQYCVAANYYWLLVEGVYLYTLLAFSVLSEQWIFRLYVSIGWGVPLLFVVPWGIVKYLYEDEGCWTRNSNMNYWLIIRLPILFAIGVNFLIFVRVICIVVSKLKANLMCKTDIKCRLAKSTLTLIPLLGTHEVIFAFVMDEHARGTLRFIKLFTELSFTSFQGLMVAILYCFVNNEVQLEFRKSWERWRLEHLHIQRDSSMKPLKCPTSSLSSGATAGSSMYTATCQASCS
Compound,"activity change, negative = inhibition",Potency
CCc1nc(N2CCCCC2)c2oc3ccccc3c2n1,inactive: -7.34%,
C/C(=N\NS(=O)(=O)c1ccccc1)c1ccc2c(c1)OCCO2,inactive: 7.98%,
CC12CC3(C)CC(C)(C1)CC(C(=O)NC1=NCCS1)(C2)C3,,"inconclusive [inhibitor, partial curve, poor fit]"
N#CCSc1ccccc1NC(=O)CN1C(=O)NC(CCc2ccccc2)C1=O (stereo not given),inactive: 4.84%,
Cc1cccc(COC[C@H](Cc2ccccc2)N2CCN(C(=O)c3cccc(C)c3)CCC2=O)c1,,"inconclusive [inhibitor, partial curve, poor fit]"
CC(=O)N1CCc2cc(NC(=O)C3(C)CCN3Cc3ccccc3OC(F)F)ccc21 (stereo not given),,"inconclusive [inhibitor, full curve, poor fit]"
Cc1ccc(NC(=O)N2CCC(C(=O)NCc3ccc(F)cc3)CC2)cc1,,"inconclusive [inhibitor, single point]"
COc1ccc(-n2c(SC(C)C(=O)Nc3ncc(Cl)cc3Cl)nc3ccccc32)cc1 (stereo not given),,"inconclusive [inhibitor, full curve, poor fit]"
CC1=C(C(=O)N(C(C)C)C(C)C)CC(CC(=O)NCc2cccc3ccccc23)C(=O)N1CCC1=CCCCC1 (stereo not given),,"inconclusive [inhibitor, partial curve, poor fit]"
COc1cc(/C=N/N=C2/C(=O)Nc3ccccc32)cc(OC)c1O,inactive: 15.4%,
COc1ccc(CCC(=O)NNC(=O)Nc2cccc(Cl)c2)cc1,,"inconclusive [inhibitor, single point]"
CC(=O)c1cnc2c(-c3ccccc3)c(C(F)(F)F)nn2c1C,,"inconclusive [inhibitor, single point]"
COc1ccc(-c2cc(C3CCN(Cc4ccc([N+](=O)[O-])cc4)CC3)[nH]n2)cc1,,"inconclusive [inhibitor, partial curve]"
CCCCCCNS(=O)(=O)c1ccc(OC)c(OC)c1,inactive: 0%,
COc1cccc(CNC(=O)[C@@H]2CCCN2C(=O)[C@H]2CCCCN2C(=O)OC(C)(C)C)c1,inactive: 19.1%,
O=C(O)CN1C(=O)/C(=C\c2ccccc2OCc2ccc(Cl)cc2)SC1=S,,"inconclusive [inhibitor, single point]"
O=C(CCl)Nc1c(C(=O)Nc2ccc3c(c2)OCCO3)oc2ccccc12,,"inconclusive [inhibitor, single point]"
CN(C(=O)c1ccc2c(=O)n3c(nc2c1)CCCCC3)c1cccc(Cl)c1,,"inconclusive [inhibitor, full curve, poor fit]"
CC(C)c1ccc(NC(=O)CSC2=Nc3ccccc3C3=NC(CC(=O)NCc4ccc(F)cc4)C(=O)N23)cc1 (stereo not given),inactive: 0.532%,
Cc1ccccc1-c1csc(C(O)(c2ccccc2)C(F)(F)F)n1 (stereo not given),,"inconclusive [inhibitor, single point]"
Cc1ccc(CNC(=O)C2CCC(CNS(=O)(=O)c3cccc4cccnc34)CC2)cc1 (stereo not given),,"inconclusive [inhibitor, single point]"
Brc1ccc(N=Nc2ccc3ccccc3n2)cc1,,"inconclusive [inhibitor, full curve, poor fit]"

Compound,"activity change, negative = inhibition",Potency
COc1ccc(C(=O)C=Cc2ccc(OCc3ccccc3)c(OC)c2)cc1OC,,"inconclusive [inhibitor, partial curve, poor fit]"
Cc1ccc(CNC(=O)c2nc(SCc3ccc(C)cc3)ncc2Cl)cc1,inactive: -0.944%,
CSc1ccc(NC(=O)Nc2cccn(Cc3ccccc3)c2=O)cc1,,"inconclusive [inhibitor, partial curve, poor fit]"
Cc1ccc(C)c(N2CCN(CC3CCCCC3)CC2)c1,inactive: -30%,
Cc1cc(Sc2nc(N)ncc2[N+](=O)[O-])ncn1,,"inconclusive [inhibitor, single point]"
CC1CC(C)CN(C(=O)c2cc(S(=O)(=O)N3CCCCC3)ccc2Cl)C1 (stereo not given),,"inconclusive [inhibitor, single point]"
O=S(=O)(NCC(c1ccco1)S(=O)(=O)c1cccs1)c1ccc(F)c(C(F)(F)F)c1 (stereo not given),,"inconclusive [inhibitor, single point]"
COCCCNC(=O)CSc1ccsc1[N+](=O)[O-],inactive: 1.65%,
Cc1cc(C)n(S(=O)(=O)/C=C/c2ccccc2)n1,,"inconclusive [inhibitor, full curve, poor fit]"
CC(C)c1ccc(CN2C(=O)c3ccccc3S2(=O)=O)cc1,,"inconclusive [inhibitor, partial curve, poor fit]"
CN(Cc1ccc(Br)cc1)CC(O)COc1cccc(Br)c1 (stereo not given),,"inconclusive [inhibitor, partial curve, poor fit]"
Cc1cc(C)nc(NC(=S)Nc2cccc(F)c2)c1,,"inconclusive [inhibitor, single point]"
CC1(C)CC(=O)C2=C(C1)N=C1SCCC(=O)N1C2c1ccccc1 (stereo not given),inactive: 4.75%,
COCCn1nnnc1C(c1ccccn1)N1CCN(c2cccc(C)c2C)CC1 (stereo not given),,"inconclusive [inhibitor, single point]"
Cc1ccc(-c2csc(N(CCO)CCCn3c(C(F)(F)F)nc4ccccc43)n2)cc1,,"inconclusive [inhibitor, single point]"
CN(C)c1ccc(C(=O)NCCCSc2ccccc2)cc1,,"inconclusive [inhibitor, partial curve, poor fit]"
CC(Sc1nnc(C2CC2)n1N)C(=O)NC1CCCCC1C (stereo not given),inactive: 10.3%,
COc1ccccc1CNC(=O)CN1NS(=O)(=O)c2ccccc2C1=O,inactive: 6.76%,
CCOc1ccccc1CNC(=O)c1cc2c(=O)n(Cc3ccccc3)ccc2nc1C,,"inconclusive [inhibitor, single point]"
CCCCc1c(-c2ccc(Br)cc2)ncn1CCc1ccccc1OC,,"inconclusive [inhibitor, partial curve]"
CCOc1ccc(NC(=O)CSc2nccn2-c2cccc(C)c2C)cc1,,"inconclusive [inhibitor, partial curve, poor fit]"
O=C(COC(=O)CSc1ccccc1)Nc1ccc(F)cc1F,inactive: -0.781%,

Compound,"activity change, negative = inhibition",Potency
COc1ccc([N+](=O)[O-])cc1N(CC(O)CN(C)C)S(=O)(=O)c1ccc(C)cc1 (stereo not given),,"inconclusive [inhibitor, single point]"
Cn1c(C(=O)OCC(=O)NCc2ccc(F)cc2)cc2occc21,,"inconclusive [inhibitor, full curve]"
CCOCc1c(C(=O)NC2CCCCCC2)oc2ccccc12,,"inconclusive [inhibitor, partial curve, poor fit]"
CC(Oc1ccc(Br)cc1)C(=O)N1CCC(C(N)=O)CC1 (stereo not given),inactive: -9.48%,
COc1ccc(-c2csc(N(CCCN(C)C)C(=O)c3ccccc3Cl)n2)cc1,,"inconclusive [inhibitor, full curve, poor fit]"
O=C1NC(Cc2ccc(O)cc2)c2nc3cc(F)c(F)cc3c(=O)n2-c2cc3ccccc3cc21 (stereo not given),,"inconclusive [inhibitor, partial curve, poor fit]"
COc1ccc(NC(=O)C(=O)c2cc(C)n(-c3ccc(C)cc3)c2C)cc1Cl,,"inconclusive [inhibitor, partial curve, poor fit]"
N=C1SCC(=O)N1c1nc(-c2ccccc2)cs1,inactive: 23.4%,
O=C1CC2(CCN(C(=O)COc3ccc(Cl)cc3)CC2)Oc2ccccc21,,"inconclusive [inhibitor, single point]"
COc1cc(NC(=S)Nc2ccccn2)c(OC)cc1Cl,,"inconclusive [inhibitor, partial curve, poor fit]"
NC(c1csc(NC(=O)Nc2cccc(C(F)(F)F)c2)n1)C1CCCCC1 (stereo not given),,"inconclusive [inhibitor, single point]"
Cc1cc(=O)oc2cc(OCC(O)CN3CCN(c4ccccc4)CC3)ccc12 (stereo not given),,"inconclusive [inhibitor, full curve, poor fit]"
COCCNC(=O)CCn1c(=O)[nH]c2cc(OC)c(OC)cc2c1=O,inactive: 10.6%,
O=C(Cc1cccs1)Nc1ccc(S(=O)(=O)N2CCCC2)cc1,,"inconclusive [inhibitor, partial curve]"
Cc1ccc(S(=O)(=O)N2CCN(CCOc3ccccc3)CC2)cc1,,"inconclusive [inhibitor, single point]"
CC(=O)Nc1sc2c(c1C(c1cccc(F)c1)N1CCN(CCO)CC1)CCCC2 (stereo not given),,"inconclusive [inhibitor, single point]"
CC1(C)C[C@@H](O)CC2(C1)C[C@]1(C)CC(O)[C@H]2C(C)(C)C1 (stereo not given in full),,"inconclusive [inhibitor, single point]"
CCOc1ccc(CCNC(=O)Cn2ccc3cc(S(=O)(=O)N4CCCCCC4)ccc32)cc1,,"inconclusive [inhibitor, partial curve, poor fit]"
COc1ccc(N2CCN(c3ncnc4onc(C)c34)CC2)cc1,,"inconclusive [inhibitor, partial curve, poor fit]"
CCOc1ccccc1N1CCN(C(=O)C(Sc2ccccc2)c2ccccc2)CC1 (stereo not given),,"inconclusive [inhibitor, partial curve, poor fit]"
Cc1cccc(N2CCN(C(=O)C3CCCN(C(=O)c4cc5sccc5n4C)C3)CC2)c1C (stereo not given),,"inconclusive [inhibitor, single point]"
